# Screen size: about 410,000 compounds; about 5,000 (1.2%) were called active. The inconclusive results got no clear call from the source; some entries with a clear call stand among them for comparison. Calls come from the whole dose curve; as a rule, active = well fitted inhibition curve with a large enough effect; inconclusive = small, poorly fitted or top-dose-only effect; inactive = no such curve, though single readings can be large or run the other way. Potencies beside an inconclusive call are fits to weak or partial responses and may not hold up.
# Assay: qHTS for Inhibitors of TGF-b; note: nearly all actives have a fitted effect of over 65% in size
# Settings: HepG2 CAGA-GFP TGF-b/SMAD3 reporter, GFP fluorescence, 18 h, TGF-beta stimulated, 500 pg/mL final; series mostly up to 46.1 µM; activity, negative = inhibition: at the top concentration
# In short: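 HEPG2 CAGA-GFP reporter cells (1000/well, DMEM with 1% FBS) received compounds, then recombinant TGF-beta at 500 pg/mL final for 18 hours at 37 degrees C. Per-cell GFP summed per well was normalised to unstimulated and stimulated DMSO controls before curve fitting.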
# % is set by controls: 0 for no effect and ±100 for the full control effect; potency is the fitted concentration of half-maximal effect; tags give direction and shape of the fitted curve.
Compound,"activity, negative = inhibition",Potency
CCCC(=O)OCC1CN(Cc2ccco2)S(=O)(=O)c2c(F)cccc2O1 (stereo not drawn),inactive: -23%,
Cc1ccc(-n2ncc(C(=O)N3CCN(Cc4ccccc4)CC3)c2C2CCN(C(=O)OC(C)(C)C)CC2)c(C)c1,inactive: 15.6%,
CCOc1cc(C2c3c(oc4ccccc4c3=O)C(=O)N2c2nccs2)ccc1O (stereo not drawn),,"inconclusive: 7.08 µM [inhibitor, full curve, poor fit]"
COc1ccccc1C(=O)N1CCCC(C)(C(=O)NS(=O)(=O)C2CC2)C1 (stereo not drawn),inactive: 23.7%,
CC(C)(C)NC(=O)NC(=O)COc1ccc(Br)cc1Br,,"inconclusive: 22.4 µM [inhibitor, single point]"
CCOC(=O)/C=C/C(=O)OCC(=O)NC(c1ccccc1)c1ccccc1,,"inconclusive: 15.8 µM [inhibitor, single point]"
Fc1cccc(-c2cncc(N3CCN(CCN4CCCC4)CC3)n2)c1,inactive: 8.42%,
O=C1NNC(=O)C2C3C=CC(C4CC34)C12 (stereo not drawn),,"inconclusive: 35.5 µM [inhibitor, single point]"
Cc1ccc(Nc2nnc(SC/C(O)=C(\C#N)c3nc4ccccc4[nH]3)s2)c(C)c1,,"inconclusive: 8.91 µM [inhibitor, partial curve]"
CC(C)(C)n1nnnc1C(c1ccnc2ccccc12)N1CCN(C/C=C/c2ccccc2)CC1 (stereo not drawn),,"inconclusive: 8.91 µM [inhibitor, single point]"
CN(C(=O)Cn1nnc(-c2cccc(C(F)(F)F)c2)n1)C1CCCCC1,,"inconclusive: 2 µM [inhibitor, full curve]"
O=C(Nc1cccc(-c2cccc(Cl)c2)c1)C1CCN(Cc2ccccn2)CC1,,"inconclusive: 22.4 µM [inhibitor, single point]"
CCSc1nnc(NC(=O)C(CC)(C(F)(F)F)C(F)(F)F)s1,,"inconclusive: 20 µM [inhibitor, single point]"
CC(=O)/C(=N\Nc1ccc(Cl)cc1Cl)Sc1cccc2cccnc12,,active: 2.82 µM
O=c1ccn2c(n1)SC(c1ccccc1)C2 (stereo not drawn),inactive: 10.7%,
COc1ccc(CN(CC(O)COCc2ccccc2)S(=O)(=O)c2ccccc2Br)cc1OC (stereo not drawn),,"inconclusive: 20 µM [inhibitor, single point]"
COc1ccc(NC(=S)Nc2cccc(S(=O)(=O)N3CCCCC3)c2)cc1,,"inconclusive: 17.8 µM [inhibitor, single point]"
COc1ccc(-n2nc3c(N4CCC(C(=O)NCC(C)c5ccccc5)CC4)nnc(C)c3c2C)cc1 (stereo not drawn),,"inconclusive: 8.91 µM [inhibitor, single point]"
N#Cc1ccc(CSc2nnc(-c3c[nH]c4ccccc34)n2-c2ccccc2)cc1,inactive: -16.5%,
COc1ccc(CNC(=O)C[C@H]2C[C@H](C(=O)N(C(C)C)C(C)C)[C@@]3(C)c4[nH]c5ccc(Cl)cc5c4CCN3C2=O)cc1OC,,active: 14.1 µM
Cc1cccc2cc(C3CC(c4ccco4)=NN3C(=O)CCC(=O)O)c(Cl)nc12 (stereo not drawn),inactive: 2.62%,
Nc1nc(SCC(=O)Nc2ccc([N+](=O)[O-])cc2Br)n[nH]1,,"inconclusive: 6.31 µM [inhibitor, single point]"
CCc1nc2ccc(C(=O)NCc3ccccc3OC)cn2c1N(C)Cc1ccc(OC)cc1,,"inconclusive: 35.5 µM [inhibitor, single point]"

Compound,"activity, negative = inhibition",Potency
C[C@@H]1CCCCO[C@H](CN(C)Cc2ccc(Cl)c(Cl)c2)[C@@H](C)CN([C@H](C)CO)C(=O)c2cc(N(C)C)ccc2O1,,"inconclusive: 35.5 µM [inhibitor, single point]"
Cc1cccc(OCC(=O)Nc2ccc(C(=O)NCC(C)C)cc2)c1,,"inconclusive: 15.8 µM [inhibitor, single point]"
O=C(COC(=O)c1ccccc1Cl)NC1CCCCCC1,inactive: 3.88%,
CCN(CC)CCCN(Cc1cc2cc3c(cc2[nH]c1=O)OCCO3)C(=O)Nc1ccccc1,inactive: 20.9%,
CC(C)(C)C(=O)Nc1c(C(=O)N2CCN(c3ccc(F)cc3)CC2)oc2ccccc12,inactive: -22.2%,
CC1=CC(=C(c2ccc(N)cc2)c2ccc(N)cc2)C=CC1=N,,"inconclusive: 12.6 µM [inhibitor, partial curve]"
O=C(/C=C/c1ccc(OC(F)F)cc1)Nc1cccc(S(=O)(=O)NC2=NCCCCC2)c1,,"inconclusive: 11.2 µM [inhibitor, single point]"
Cc1ccccc1-c1nnn(CC(=O)N(C)CC(=O)Nc2ccccc2C(F)(F)F)n1,,"inconclusive: 6.31 µM [inhibitor, single point]"
CCc1cccc(NC(=O)CSc2ncc3c(n2)-c2ccccc2N(Cc2ccccc2C)S3(=O)=O)c1,inactive: -22.3%,
COc1ccc(SCCN2CC[C@@H](C(C)(C)C)CCC2=O)cc1,,"inconclusive: 15.8 µM [inhibitor, single point]"
CC1=C(C(=O)OC(C)C)C(c2ccc(O)cc2)NC(=O)N1 (stereo not drawn),inactive: 8.4%,
COc1ccnc(-n2cccc2C=O)c1C#N,inactive: 6.09%,
O=C(CC1(O)C(=O)N(CCc2ccccc2)c2ccc(Br)cc21)c1ccccc1O (stereo not drawn),,"inconclusive: 35.5 µM [inhibitor, single point]"
CCN1CCN(C(=S)Nc2cc(S(=O)(=O)N(CC)CC)ccc2C)CC1,,"inconclusive: 35.5 µM [inhibitor, single point]"
O=C1c2cccc(-c3ccc(C(F)(F)F)cc3)c2C2CCCCN12 (stereo not drawn),,"inconclusive: 6.31 µM [inhibitor, full curve, poor fit]"
O=S(=O)(c1ccc(Cl)cc1)N1CCN(C(=S)Nc2ccc(F)c(Cl)c2)CC1,,"inconclusive: 17.8 µM [inhibitor, partial curve, poor fit]"
CCN(CC)C(=O)CSc1nc2ccccc2c(=O)n1CC1CCCCC1,inactive: 0%,
COc1ccccc1NC(=O)c1ccc(NS(=O)(=O)c2ccc(F)c(F)c2F)cc1,,"inconclusive: 0.0891 µM [inhibitor, full curve, poor fit]"
COc1ccccc1CNC(=O)c1cccc(Nc2nc3ccccc3n3nnnc23)c1,,"inconclusive: 17.8 µM [inhibitor, single point]"
CN=C1SC(CC(=O)Nc2ccccc2F)C(=O)N1/N=C/c1ccc(O)c(OC)c1 (stereo not drawn),inactive: -6.82%,
O=C(NNC(=O)c1ccc(SCC2CCCO2)c([N+](=O)[O-])c1)c1ccc(Cl)c([N+](=O)[O-])c1 (stereo not drawn),,"inconclusive: 35.5 µM [inhibitor, single point]"
O=C(N/N=C/c1cccnc1)c1cc(-c2ccc(Br)cc2)nc2ccccc12,,"inconclusive: 11.2 µM [inhibitor, partial curve, poor fit]"
CCC(c1nnnn1Cc1ccco1)N(CCc1ccccc1)Cc1cc2ccc(OC)cc2[nH]c1=O (stereo not drawn),,"inconclusive: 28.2 µM [inhibitor, single point]"

Compound,"activity, negative = inhibition",Potency
CC(=O)c1ccc(NC(=O)c2cc(-c3ccc(Cl)c(Cl)c3)on2)cc1,inactive: 2.51%,
CCCCSc1nnc([C@H](CC(C)C)NC(=O)OC(C)(C)C)o1,inactive: 0%,
O=C(NCC(c1ccco1)N1CCc2ccccc21)C(=O)Nc1ccccc1F (stereo not drawn),,"inconclusive: 35.5 µM [inhibitor, single point]"
COc1ccc(C(=O)CCN2CCc3cc(OC)c(OC)cc3C2)cc1,,"inconclusive: 2.82 µM [inhibitor, full curve, poor fit]"
O=C(CCCN=C1NS(=O)(=O)c2ccccc21)OCC(=O)c1ccc(Br)cc1,,"inconclusive: 35.5 µM [inhibitor, single point]"
COc1cccc(S(=O)(=O)Nc2cccc(C(=O)N3CCCCCC3)c2)c1,,"inconclusive: 11.2 µM [inhibitor, single point]"
O=c1c2ccccc2nc(-c2cccc(Cl)c2)n1O,inactive: 0.891%,
COC(=O)c1cccc(NC(=S)Nc2ccc(Cl)c(Cl)c2)c1,,"inconclusive: 35.5 µM [inhibitor, single point]"
COc1ccc(-c2cc(C(=O)NCc3ccccc3)c3c(-c4ccccc4)[nH]nc3n2)cc1,inactive: -22.7%,
COc1ccc(CC(=O)OCC(=O)Nc2ccc3c(c2)OCO3)cc1OC,,"inconclusive: 35.5 µM [inhibitor, single point]"
Nc1cc(N2CCCC2)c(Cl)cc1[N+](=O)[O-],inactive: 1.68%,
CCOc1ccc(CNC(=O)C2CCN(c3nnc(C)c4c(C)n(-c5ccc(C)cc5)nc34)CC2)cc1,,"inconclusive: 11.2 µM [inhibitor, single point]"
CSc1nn(Cc2ccc(Br)cc2)c(N(C(C)=O)C(C)=O)c1S(=O)(=O)c1ccccc1,,"inconclusive: 20 µM [inhibitor, single point]"
Cc1ccc(C)c(Cn2c(CN(C)Cc3ccccc3)nc3c2c(=O)n(C)c(=O)n3C)c1,,"inconclusive: 15.8 µM [inhibitor, single point]"
Cc1ccc(S(=O)(=O)NCCc2c[nH]c3ccccc23)cc1,,"inconclusive: 25.1 µM [inhibitor, single point]"
COc1ccc(-c2nc(-c3ccccn3)nc(N3CCN(C)CC3)c2C#N)cc1,inactive: -13.3%,
COc1ccc(C2C3=C(CC(c4ccco4)CC3=O)Nc3ccccc3N2C(C)=O)cc1 (stereo not drawn),,"inconclusive: 3.16 µM [inhibitor, single point]"
CCC(C(=O)NC1CCCCCC1)n1nc(C)c2c(C)n(-c3ccccc3)nc2c1=O (stereo not drawn),inactive: -0.875%,
COc1ccccc1-c1nnc2n1N=C(C(C)(C)C)CS2,,"inconclusive: 20 µM [inhibitor, single point]"
COCCNc1nc(NCc2ccccc2)nc2ccsc12,,active: 2.51 µM
COc1cc2c(cc1OC)C(c1cccc([N+](=O)[O-])c1)N(C(=O)CCC(=O)O)CC2 (stereo not drawn),inactive: -1.5%,
O=C(CN1C(=O)c2ccccc2S1(=O)=O)c1ccc(F)c(F)c1,inactive: -6.14%,
